B1: PR006034: PR004433 variant, linker peptide Hinge4_1, SEQ ID NO: 109 (antibody)
heavy: EVQLVETGGGLIQPGGSLRLSCAASGFTVSDSYMTWVRQAPGKGLEWVSVIFSGGRTYYSDSVKGRFTISRDNAKNTLYLQMNSLRAEDTALYYCARRNYDDTRGTDVFDIWGQGTMVTVSSEPKSCTGKM[not shown - human IgG1 Fc]
B2: PR006037: PR004433 variant, linker peptide Hinge5_2, SEQ ID NO: 112 (antibody)
heavy: EVQLVETGGGLIQPGGSLRLSCAASGFTVSDSYMTWVRQAPGKGLEWVSVIFSGGRTYYSDSVKGRFTISRDNAKNTLYLQMNSLRAEDTALYYCARRNYDDTRGTDVFDIWGQGTMVTVSSEPKSCQAESR[not shown - human IgG1 Fc]
B3: PR006040: PR004433 variant, linker peptide Hinge6_4, SEQ ID NO: 115 (antibody)
heavy: EVQLVETGGGLIQPGGSLRLSCAASGFTVSDSYMTWVRQAPGKGLEWVSVIFSGGRTYYSDSVKGRFTISRDNAKNTLYLQMNSLRAEDTALYYCARRNYDDTRGTDVFDIWGQGTMVTVSSEPKSCAPVRPW[not shown - human IgG1 Fc]
B4: PR006312: PR004433 variant, linker peptide Hinge7_19, SEQ ID NO: 120 (protein)
chain: EVQLVETGGGLIQPGGSLRLSCAASGFTVSDSYMTWVRQAPGKGLEWVSVIFSGGRTYYSDSVKGRFTISRDNAKNTLYLQMNSLRAEDTALYYCARRNYDDTRGTDVFDIWGQGTMVTVSSEPKSCSYLFGRV[not shown - human IgG1 Fc]
modifications: PR006312 chain
B5: PR006314: PR004433 variant, linker peptide Hinge8_18, SEQ ID NO: 122 (protein)
chain: EVQLVETGGGLIQPGGSLRLSCAASGFTVSDSYMTWVRQAPGKGLEWVSVIFSGGRTYYSDSVKGRFTISRDNAKNTLYLQMNSLRAEDTALYYCARRNYDDTRGTDVFDIWGQGTMVTVSSEPKSCSSDVVGGR[not shown - human IgG1 Fc]
modifications: PR006314 chain
B6: PR006317: PR004433 variant, linker peptide Hinge9_7, SEQ ID NO: 125 (protein)
chain: EVQLVETGGGLIQPGGSLRLSCAASGFTVSDSYMTWVRQAPGKGLEWVSVIFSGGRTYYSDSVKGRFTISRDNAKNTLYLQMNSLRAEDTALYYCARRNYDDTRGTDVFDIWGQGTMVTVSSEPKSCASMNRGGGG[not shown - human IgG1 Fc]
modifications: PR006317 chain
B7: PR006320: PR004433 variant, linker peptide Hinge10_5, SEQ ID NO: 128 (protein)
chain: EVQLVETGGGLIQPGGSLRLSCAASGFTVSDSYMTWVRQAPGKGLEWVSVIFSGGRTYYSDSVKGRFTISRDNAKNTLYLQMNSLRAEDTALYYCARRNYDDTRGTDVFDIWGQGTMVTVSSEPKSCSVGRFGSMLE[not shown - human IgG1 Fc]
modifications: PR006320 chain
B8: PR006031: PR004433 variant, linker peptide Hinge3_5, SEQ ID NO: 106 (antibody)
heavy: EVQLVETGGGLIQPGGSLRLSCAASGFTVSDSYMTWVRQAPGKGLEWVSVIFSGGRTYYSDSVKGRFTISRDNAKNTLYLQMNSLRAEDTALYYCARRNYDDTRGTDVFDIWGQGTMVTVSSEPKSCQPR[not shown - human IgG1 Fc]

Key:
[1] = Protein purity and polymers by SEC-HPLC; conditions: purified antigen-binding protein; PR004433 from CHO, variants from HEK293
Experimental: In this example, analytical size-exclusion chromatography (SEC) was used to analyze the protein sample for purity and polymer form. An analytical chromatography column TSKgel G3000SWxl (Tosoh Bioscience, #08541, 5 μm, 7.8 mm×30 cm) was connected to a high performance liquid chromatography HPLC (Agilent Technologies, Agilent 1260 Infinity II) and equilibrated with a PBS buffer at room temperature for at least 1 h. A proper amount of the protein sample (at least 10 μg) was filtered through a 0.22 μm filter membrane and then injected into the system, and an HPLC program was set: the sample was passed through the chromatography column with PBS buffer at a flow rate of 1.0 mL/min for a maximum of 25 min. The detection wavelength was 280 nm. Operation was performed at room temperature. After being recorded, the chromatogram was integrated using ChemStation software and relevant data were calculated. An analysis was generated, with the retention time of the components with different molecular sizes in the sample reported.

[2] = Molecular weight and coupling product components (DAR) by LC-MS; conditions: coupling product with mc-vc-PAB-MMAE, without HIC purification
Text: In this example, liquid chromatography-mass spectrometry (LC-MS) was used to analyze the protein sample for molecular weight. Those skilled in the art can use different models of liquid chromatography (LC) and mass spectrometer (MS) to establish similar analytical methods according to the technical instructions and through experimental exploration. Only representative methods are listed in this example.
In certain specific embodiments, determination of the molecular weight of a protein sample required desaccharification on the sample to remove modifications such as saccharide chains, for example, the sample was processed with glycosidase PNGase F (NEB, #P0705L) at 37° C. for at least 4 h. For example, in all examples of the present invention, when the molecular weight of protein samples was determined, unless otherwise emphasized, the protein samples to be tested were subjected to desaccharification by the glycosidase PNGase F.
In certain specific embodiments, determination of the reduced molecular weight of a protein sample required reduction on the sample, for example, the sample was processed with […] dithiothreitol (DTT) at 37° C. for 10 min. For example, in all examples of the present invention, the samples after reduction were called reduced samples, and the samples without reduction were called non-reduced samples.
Buffer A was 0.1% formic acid FA dissolved in water, and buffer B was 0.1% formic acid FA dissolved in acetonitrile. Injection: about 1 μg; flow rate: 0.3 mL/min; and operation temperature: 80° C. When reduced samples were tested, buffer A and buffer B were mixed within 12 min to form a linear gradient: using 10-60% B for the first 8 min and 80% B for the last 4 min. When non-reduced samples were tested, buffer A and buffer B were mixed within 9 min to form a linear gradient: using 15-60% B for the first 6 min and 80% B for the last 3 min.
Buffer A was 0.1% formic acid FA dissolved in water, and buffer B was 0.1% formic acid FA dissolved in acetonitrile. Injection: about 10 μL; flow rate: 0.2-0.5 mL/min; and operation temperature: 80° C. The detection wavelength was 214 nm.
In certain specific embodiments, the model of a mass spectrometer used was AB Sceix X500B, and the operating mode thereof was TOF-MS; when reduced samples were tested, a scanning range was 600-4000 m/z; when non-reduced samples were tested, a scanning range was 900-6000 m/z. Original mass spectrums were deconvolved by Sceix OS software to obtain molecular weight maps.
In certain other specific embodiments, the model of a mass spectrometer used was Waters Xevo G2-XS Q-TOF, and a molecular weight scanning range thereof was 500-4000 Da. Original mass spectrums were deconvolved by Water MaxEnt or Agilent MassHunter BioConfirm software.
In multiple specific embodiments of the present application, the combination set of different LC and MS conditions was used to achieve LC-MS combination for determining the molecular weight of protein samples. For example, in 0 and 0, the combination of conditions used was (chromatography column: ACQUITY UPLC Protein BEH C4; LC instrument: Waters Acquity UPLC; MS instrument: Waters Xevo G2-XS Q-TOF).

[3] = Melting temperature (Tm1) of proteins by DSF; type: physicochemical; conditions: minimum melting temperature
Experimental: Differential scanning fluorimetry (DSF) is a commonly used high-throughput method for determining the thermostability of proteins. In this method, changes in the fluorescence intensity of the dye that binds to unfolded protein molecules were monitored using a real-time quantitative fluorescence PCR instrument to reflect the denaturation process of the protein and thus to reflect the thermostability of the protein. In this example, the melting temperature (Tm) of a protein molecule was measured by DSF. 10 μg of protein was added to a 96-well PCR plate (Thermo, #AB-0700/W), followed by the addition of 2 μL of 100× diluted dye SYPRO™ (Invitrogen, #2008138), and then the mixture in each well was brought to a final volume of 40 μL by adding buffer. […] The FRET scanning mode was used and data analysis was performed using Bio-Rad CFX Maestro software to calculate the Tm of the sample.
The antigen-binding protein derived from PR004433 in Table 0-3 was expressed and purified according to the method described in 0, and the SEC-HPLC method described in 0 was used to analyze the purity and the DSF method described in 0 was used to determine the minimum melting temperature (Tm1). It can be seen that after the hinge region sequence of HCAb PR004433 is replaced with variant sequences of various linker peptides, and Cys6 and Cys2 are separated by at least 3 other amino acids, the variant sequences derived from PR004433 can be effectively expressed, and the expression yield and thermostability Tm1 of the vast majority of variant molecules are not affected.

Molecule | SEC-HPLC purity (%) [1] [%] | Average DAR ([2]; TCEP 1.5 equivalents) | Average DAR ([2]; TCEP 2.0 equivalents) | Average DAR ([2]; TCEP 3.0 equivalents) | Average DAR ([2]; TCEP 4.0 equivalents) | Average DAR ([2]; TCEP 5.0 equivalents) | Average DAR ([2]; TCEP 6.0 equivalents) | DSF Tm1 (° C.) [3] [°C]
B1 | 99.65 | 1.53 | 1.90 | 2.41 | 2.94 | 3.21 | 3.69 | 55.2
B2 | 98.95 | 1.30 | 1.36 | 1.68 | 2.03 | 2.20 | 2.35 | 55.4
B3 | 98.65 | 1.63 | 1.91 | 2.25 | 2.60 | 2.7 | 2.95 | 54.6
B4 | 99.18 | 1.98 | 2.10 | 2.36 | 2.53 | 2.52 | – | 52.8
B5 | 99.34 | 1.18 | 1.44 | 1.84 | 2.31 | 2.59 | – | 55.2
B6 | 99.33 | 1.90 | 2.36 | 2.90 | 3.21 | 3.68 | – | 55.0
B7 | 97.80 | 1.66 | 1.87 | 1.99 | 2.03 | 2.03 | – | 53.6
B8 | 99.05 | 1.64 | 2.12 | 2.65 | 3.02 | 3.41 | 3.69 | 54.8
